Data: PubChem BioAssay AID1458 (National Center for Advancing Translational Sciences (NCATS), 2008)
“And” between values parts separate entries of the source, which are not always exact repeats. Identical values can stand only once. Hit rate of the full screen: of about 210,000 compounds, about 5,900 (2.8%) were called active. The shares of active, inactive and inconclusive entries below differ from those in the screen. The call rests on the fitted dose curve; in most records, active means well fitted activation curve with a large enough effect; inconclusive means small, poorly fitted or top-dose-only effect; inactive means no such curve, though single readings can be large or run the other way. Potencies of inconclusive entries are doubtful fits and often do not repeat.

Assay: qHTS Assay for Enhancers of SMN2 Splice Variant Expression; further: nearly all actives have a fitted effect of over 55% in size
Settings: HEK293 SMN2-luciferase splicing reporter, luminescence, 30-36 h; series mostly up to 46.1 µM
Excerpt: NIH Chemical Genomics Center [NCGC] NIH Molecular Libraries Probe Production centers Network [MLPCN] MLPCN Grant: R03 MH084179-01 Assay Submitter (PI): Elliot Androphy NCGC Assay Overview: Spinal muscular atrophy (SMA) is caused by insufficient levels of the survival motor neuron protein SMN. The SMN locus on chromosome 5q13 contains two inverted copies of SMN called SMN1 and SMN2 which are 99% identical at the amino acid level. SMN1 is a fully functional protein and SMN2 skips exon 7 90% of the time. Skipping of exon 7 produces non-functional protein product. 10% of the SMN2 protein includes exon 7 and is fully functional. In the SMA disease state, mutations in the SMN1 locus are the cause of the disease state. Because only 10% of SMN2 is of the fully functional form, it is not sufficient to overcome the deficiency produced by the loss of the SMN1 product. A therapy that either increase the amount of SMN2 product made or to increase the inclusion of exon 7 has been proposed for the treatment of SMA. We have designed an assay to identify small molecules that can increase the amount of functional SMN2 product by appending a luciferase reporter gene after the native SMN2 gene, such that inclusion of exon 7 in the expressed product places the luciferase sequence in frame, thus generating functional luciferase enzyme.
NCGC Assay Protocol Summary: This screen utilizes a luciferase reporter gene assay, combining the promoter and splicing based cassettes in tandem with the major portion of the native SMN2 cDNA, and then transfected into HEK293 cells. Compounds that increase luciferase signal presumably enhance expression of the functional SMN2 splice variant. Passaging media contained DMEM w/ glutamax (+phenol red) 10% FCS, 1x pen/strep, 200 ug/ml hygro, 1x sodium pyruvate. Assay media contained DMEM w/ glutamax (-phenol red) 10% FCS, 1x pen strep, 1x pyruvate Sequence, Parameter, Value, Description (1) Cells, […], 2000 cells/well, 1536 TC treated White solid bottom plate (2) Time, 10-12 hours, 37C 5% CO2 (3) Compound, 23 nl, MLSMR Library (4) Control Compound, 23 nL, Sodium butyrate st 4.5mM (final) conc (5) Time, 30-36 hours, 37C 5% CO2 (6) Reagent, 3 ul, One Glo (TM) from Promega (7) Time, 5-15 minutes, Room temp (8) Detector, Viewlux: luminescent read, 60 second integration, high speed 2x binning Keywords: Spinal muscular atrophy, SMA, SMN2, high throughput screening, MLSMR, MLPCN, NIH Roadmap, qHTS and NCGC
Potency means the concentration at half of the fitted maximal effect; tags describe the fitted curve by direction and shape.

SMILES	Potency
COc1ccccc1-n1cnc2cc(NS(=O)(=O)c3ccc(Br)cc3)ccc21	inconclusive: 35.5 µM [activator, single point]
O=C(O)c1cn(-c2ccccc2)nc1-c1ccncc1	inconclusive: 7.94 µM [activator, partial curve, poor fit]
Cc1nnc(SCc2cc(=O)[nH]c(=S)[nH]2)s1	inconclusive: 6.31 µM [activator, full curve]
O=C(Nc1c(Cl)cccc1Cl)c1cc(-c2cccc(O)c2)on1	inconclusive: 25.1 µM [activator, single point]
CN1C(=O)COc2ccc(C(=O)c3oc4ccccc4c3-c3cnc4c(c3)COc3ccccc3-4)cc21	inactive
O=c1[nH]c(Cc2cccs2)nc2ccccc12	inconclusive: 14.1 µM [activator, partial curve, poor fit]
O=C(c1ccc(CNc2c(N3CCCC3)c(=O)c2=O)cc1)N1CCN(C2CCCCC2)CC1	inconclusive: 0.158 µM [activator, full curve]
CC(=O)Nc1ccc(S(=O)(=O)Nc2cccc(-c3nc4ccccc4o3)c2)cc1	inactive
COc1ccccc1NC(=O)/C=C1\NC(=O)CS1	inactive
O=S(=O)(Nc1ccc(-c2nc3cccnc3s2)cc1)c1cccs1	inconclusive: 12.6 µM [activator, single point]
O=C(/C=C/c1cn(CC(O)CN2CCCCCC2)c2ccccc12)c1ccc(Br)cc1 (centres undefined)	inactive
O=C(N/N=C/c1cccs1)c1n[nH]c2c1CCC2	active: 5.01 µM
N=C(N)SCc1nc2ccccc2c(=O)n1-c1ccccc1	inconclusive: 11.2 µM [activator, single point] and inconclusive: 3.98 µM [activator, partial curve]
O=C(NCc1ccc(Cl)cc1)c1cnn2ccccc12	inconclusive: 14.1 µM [activator, single point]
COc1ccc(-n2cc(CNCCc3nc(C)cc(C)n3)c(-c3ccccc3Cl)n2)cc1	inactive
C/C(=N\OC(=O)c1ccc(Cl)cc1)c1nccs1	inactive
O=C(Cc1ccccc1)Nc1ccc(NC(=O)c2ccco2)nc1	inconclusive: 17.8 µM [activator, single point]
N=c1c2c(n(Cc3ccc(Cl)cc3)c3c1CCC3)CCC2	inactive
CCOC(=O)c1sc(NC(=O)c2ccc(Cl)s2)cc1C	active: 7.94 µM
Cc1ccc(N=Nc2c(N)n(-c3ccccc3)[nH]c2=O)cc1	inconclusive: 20 µM [activator, single point]
CCOC(=O)c1ccc(NC(=O)c2nn(CC)cc2Br)cc1	inconclusive: 31.6 µM [activator, single point]
c1cncc(CNc2cccc(-c3nc4ccccc4[nH]3)c2)c1	active: 0.891 µM
CC(C)c1ccc(Nc2c(-c3ccco3)nc3ccccn23)cc1	inconclusive: 22.4 µM [activator, single point]
CC1=Nc2ccc(C)cc2/C1=C/c1c(N)n2oc(C)cc2nc1=O	inactive
CCn1c(NCc2cccs2)nc2ccccc21	inconclusive: 12.6 µM [activator, partial curve]

SMILES	Potency
Cc1ccc2oc(-c3ccc(Cl)c(NC(=O)c4ccc(OC(C)C)cc4)c3)nc2c1	inactive
CCCOc1ccc(C(=O)NCCC(=O)NCCCC(=O)OCC)cc1	inconclusive: 0.447 µM [activator, full curve, poor fit]
COc1ccc(-c2cc(=O)oc3c4c(ccc23)OCN(Cc2cccc(OC)c2)C4)cc1	inactive
COc1ccc(-c2csc(Nc3ccccn3)n2)cc1	active: 2.24 µM
CCN(CC)CCNCc1ccc(OCc2ccc(Cl)nc2)c(OC)c1	inconclusive: 35.5 µM [activator, single point]
NNC(=O)c1ccc(COc2ccc3c(c2)CCC3)o1	active: 15.8 µM
CC(=O)N(C)C(c1ccc(N(C)C)cc1)c1nnnn1-c1c(C)cccc1C (centres undefined)	inactive
C/C(CC(=O)Nc1cc(Cl)ccc1Cl)=N\NC(=O)c1ccccc1Br	inactive
CCOC(=O)NC(=O)c1cn(CCNCCO)c(=O)[nH]c1=O	inactive
c1ccc(-n2nc3c(ccc4cnnc43)[nH]2)cc1	inconclusive: 12.6 µM [activator, partial curve, poor fit]
C/C(=N\NC(=O)c1ccccc1O)c1c(O)cc(C)oc1=O	inconclusive: 1.78 µM [activator, full curve, poor fit]
CCCOC(=O)NC1CCS(=O)(=O)C1 (centres undefined)	inactive
N#Cc1ccccc1NC(=O)c1ccc(-c2ccccc2Cl)o1	inconclusive: 28.2 µM [activator, single point]
Cc1cc(C)nc(NNC(=O)c2ccccc2O)n1	inactive
Cn1ncc2c(Nc3ccc(-c4ccccc4)cc3)ncnc21	inconclusive: 35.5 µM [activator, single point]
COc1ccc2c(c1)[nH]c1c(=O)n(Cc3ccco3)cnc12	inconclusive: 31.6 µM [activator, single point]
O=C(Cn1cnc([N+](=O)[O-])n1)N/N=C/c1ccc2ccccc2c1	inconclusive: 3.55 µM [activator, single point]
CCOC(=O)c1sc(NC(=O)c2cccs2)nc1C	inconclusive: 3.98 µM [activator, partial curve]
O=c1c2sccc2n(Cc2cc(=O)n3ccccc3n2)c(=O)n1-c1cccc(C(F)(F)F)c1	inactive
Cc1ccc2nc(-c3ccc(NC(=S)NC4CC(C)(C)NC(C)(C)C4)cc3)sc2c1	inconclusive: 22.4 µM [activator, single point]
CCCN(CC(=O)Nc1ccc(Cl)cc1Cl)C(=O)/C=C/c1ccco1	inconclusive: 31.6 µM [activator, single point]
Cn1c(CSCc2ccc(F)cc2)nnc1SCC(=O)Nc1nccs1	inactive
Cc1ccc(CNC(=O)NC23CC4CC(CC(C4)C2)C3)cc1	inactive
Cc1cccc(NC(=S)NC2CCCC2)c1	inconclusive: 0.355 µM [activator, full curve]
